# Data as given in PubChem BioAssay AID662 (National Center for Advancing Translational Sciences (NCATS), 2007).
# The campaign covered roughly 71,000 compounds. About 1,800 (2.5%) were called active. Inconclusive results, whose numbers are uncertain, are shown with a selection of clear calls. Calls come from the whole dose curve; as a rule, active = well fitted activation curve with a large enough effect in the signal ratio, with a control signal flat (not every such curve was filed as active); inconclusive = small, poorly fitted or top-dose-only effect, or effect the other way, or a change in a side signal; inactive = flat fitted curve, though single readings scatter; the % refers to the signal ratio. Where the call is inconclusive, the potency comes from a doubtful curve fit.
# Experiment: Cell signaling CRE-BLA (Fsk stim); for activity change, negative = inhibition: % of control where 0% means no effect
# Settings: CHO CRE-bla reporter (cAMP response element driving beta-lactamase), forskolin EC10, beta-lactamase ratio
# In short: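 Cells were plated overnight at 37 °C, exposed to compound titrations plus EC10 NKH 477 for 3 h, then given CCF4 dye for 2 h at room temperature. Blue/green (460/530 nm) ratio was converted to %Activity and AC50 values calculated.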
# [1] = activity change, negative = inhibition: at 38.2 µM (top of the series) unless noted
# Potency is the fitted concentration of half-maximal effect; tags give direction and shape of the fitted curve.
structure (smiles),measurement,setting,value
CCOc1ccc(C2C=C(c3ccc(F)cc3)Nc3ncnn32)cc1 (centres undefined),Potency,[1],"inconclusive: 12.6 µM [falling, partial curve]"
COc1ccc(-c2cc(C(F)(F)F)nc(SCC(=O)NCc3ccco3)n2)cc1OC,Potency,[1],"inconclusive: 12.6 µM [rising, partial curve]"
CN1CCN(CCCNC(=O)c2cc3c(-c4ccc(Cl)cc4)nn(C)c3s2)CC1,Potency,[1],"inconclusive: 10 µM [rising, partial curve]"
O=C(COc1ccccc1)N1CCc2ccccc2C1,"activity change, negative = inhibition",[1],inconclusive: -4.26%
COc1ccccc1N1CCN(Cc2ccco2)CC1,"activity change, negative = inhibition",[1],inconclusive: -11.6%
COCC(=O)Nc1ccc(-c2cn3cccnc3n2)cc1,"activity change, negative = inhibition",[1],inconclusive: 4.35%
CCOc1ccc(C(=O)OCn2nnc3ccccc3c2=O)cc1OC,Potency,[1],"inconclusive: 1.58 µM [rising, full curve]"
COc1ccccc1CNc1nc(-c2cccc(C#N)c2)nc2ccccc12,Potency,[1],"inconclusive: 1.26 µM [rising, full curve, poor fit]"
Cc1ccc2[nH]c(=O)c(CN(CCCO)S(=O)(=O)c3cccc4nsnc34)cc2c1,"activity change, negative = inhibition",[1],inconclusive: 9.92%
Cc1cc(N2CCCCC2)n2ncc(-c3ccc(Cl)cc3)c2n1,Potency,[1],"inconclusive: 10 µM [rising, single point]"
CCOC(=O)c1cc(-c2cc3ccccc3o2)n[nH]1,Potency,[1],"inconclusive: 5.01 µM [falling, single point]"
COC(=O)c1[nH]c2cc(OC)c(OC)cc2c1NC(=O)c1cccc(OC)c1,Potency,[1],active: 10 µM
COC(=O)[C@@]1(Cc2ccc(F)cc2)[C@H]2c3cc(C(=O)N(C)C)n(CCc4ccc(O)c(O)c4)c3C[C@H]2CN1C(=O)c1ccccc1,"activity change, negative = inhibition",[1],inconclusive: -23.4%
CC1=C(\C=C/C(C)=C/C=C\C(C)=C\C(=O)O)C(C)(C)CCC1,"activity change, negative = inhibition",[1],inconclusive: -16.6%
c1ccc(CNc2ccnc(-c3cccnc3)n2)cc1,Potency,[1],"inconclusive: 12.6 µM [rising, single point]"
c1ccc(-n2cnnc2SCc2cn3ccccc3n2)cc1,"activity change, negative = inhibition",[1],inconclusive: 14.4%
CC(=O)N1CCN(CCN=CC2=C(O)CC(c3ccco3)CC2=O)CC1 (centres undefined),"activity change, negative = inhibition",[1],inconclusive: 3.82% [at 7.6 µM]
Cc1nc2ncnn2c(N2CCN(c3cccc(C(F)(F)F)c3)CC2)c1C,Potency,[1],inactive
O=C(c1cccc(F)c1)N1CCC2(CC1)CN(c1ncccn1)C2,Potency,[1],inactive
CCCCN(C)c1nc(-c2ccco2)c2c(c1C#N)CC(C)(C)OC2,Potency,[1],"inconclusive: 5.01 µM [rising, partial curve]"
COC(=O)N1CC=CC1(C)C(=O)NCC1CC1 (centres undefined),Potency,[1],inactive
COc1cc2cc3c(N)c(C(=O)NCc4ccco4)sc3nc2cc1OC,Potency,[1],"inconclusive: 10 µM [rising, single point]"
CCCCN(CCCC)CCn1cnc2c([nH]c3ccc(OC)cc32)c1=O,Potency,[1],inactive
COc1ccc(-n2c(CSc3nc(C)cc(C)n3)nnc2SCC(=O)Nc2nccs2)cc1,Potency,[1],inactive
Brc1cccc(-c2nnc(SCc3nc4ccccc4[nH]3)o2)c1,Potency,[1],active: 2 µM
COc1ccc(OC)c(NC(=O)CSc2nc(N)c(-c3ccccc3)c(=O)[nH]2)c1,Potency,[1],active: 12.6 µM
COCc1cc(C)nc2sc(C(=O)Nc3nccs3)c(N)c12,Potency,[1],"inconclusive: 12.6 µM [rising, partial curve]"
CN1CCN(c2ncc3nc(CCc4ccccc4)c(=O)n(Cc4ccc(F)cc4)c3n2)CC1,Potency,[1],"inconclusive: 10 µM [rising, single point]"
COC(=O)c1c(-c2cccc(OC)c2)csc1N,Potency,[1],"inconclusive: 10 µM [rising, single point]"
O=C(NC1CCCCC1)c1cccnc1C(=O)O,Potency,[1],inactive
COc1cc(S(=O)(=O)n2c(C)nc3ccccc32)ccc1F,Potency,[1],"inconclusive: 15.8 µM [rising, single point]"
CCC(c1nnc(SCc2nc3ccccc3s2)n1Cc1ccccc1)N(C)C (centres undefined),Potency,[1],"inconclusive: 3.98 µM [falling, single point]"
COc1nc(OC)nc(N2CCC(NC(=O)C(Cc3ccc(C(C)C)cc3)NC(C)=O)CC2)n1 (centres undefined),"activity change, negative = inhibition",[1],inconclusive: 4.27%
NS(=O)(=O)c1ccc(NC(=O)c2ccccc2C(=O)N2CCCCC2)cc1,Potency,[1],inactive
CCN(CC)S(=O)(=O)c1ccc(Cl)c(C(=O)NC)c1,"activity change, negative = inhibition",[1],inconclusive: 21.7% [at 7.6 µM]
COc1ccccc1N1CCN(C(=O)c2ccc(S(=O)(=O)N3CCCCCC3)cc2)CC1,Potency,[1],inactive
COc1ccc(CNC(=O)NCc2ccc(OC)c(OC)c2)cc1OC,Potency,[1],inactive
CSCCC(NC(N)=O)C(=O)N(C)CC(=O)Nc1ccc(C)cc1 (centres undefined),"activity change, negative = inhibition",[1],inconclusive: 0.142%
CCN1CCCC1Cn1c(-c2ccccc2)nc2c(N(CCOC)CCOC)nc(C)nc21 (centres undefined),"activity change, negative = inhibition",[1],inconclusive: 22.6%
O=C(O)CCNc1ccccc1C(=O)O,"activity change, negative = inhibition",[1],inactive: 9.09% [at 7.6 µM]
N#CCCn1c(=O)c(-c2ccccc2)nc2cnc(N3CCNCC3)nc21,Potency,[1],"inconclusive: 2.51 µM [rising, full curve]"
CCCOc1cccc(C(=O)Nc2cc(NC(=O)c3ccco3)ccc2OC)c1,Potency,[1],"inconclusive: 12.6 µM [rising, single point]"
CC(C)(C)OC(=O)N1CCC[C@H]1c1nnc(SCc2ccc(Cl)cc2Cl)o1,Potency,[1],"inconclusive: 25.1 µM [falling, single point]"
COc1ccc(-c2cc(C(F)(F)F)nc(SCCC(=O)N3CCOCC3)n2)cc1,Potency,[1],inactive
O=C(Cc1ccc(-n2cccc2)cc1)N1CCc2ccccc21,"activity change, negative = inhibition",[1],inconclusive: 12.4%
O=C1NC2=C(C(=O)CCC2)C(c2ccc3ncccc3c2)N1 (centres undefined),Potency,[1],inactive
COc1ccc(CCNS(=O)(=O)c2ccc3c(c2)CC(C)N3C(C)=O)cc1OC (centres undefined),"activity change, negative = inhibition",[1],inconclusive: 26.9%
CCN1CCn2c1nc(N1CCOCC1)nc2=O,Potency,[1],"inconclusive: 0.0501 µM [rising, full curve, poor fit]"
Cc1nc(N2CCC(C)CC2)c2oc3ccccc3c2n1,Potency,[1],"inconclusive: 10 µM [rising, partial curve]"
CC1(C)c2ssc(=S)c2-c2ccccc2N1C(=O)c1ccco1,Potency,[1],inactive
O=S(=O)(c1ccccc1)N1CCC2(CCCN(C(c3ccccc3)c3ccccc3)C2)CC1,Potency,[1],inactive
COc1ccc(-c2cc(=O)c3c(O)cc(O)cc3o2)cc1,"activity change, negative = inhibition",[1],inconclusive: -20.1% [at 17.1 µM]
CC(NC(=O)CSc1nc2ccccc2c(=O)n1CCCO)c1ccccc1 (centres undefined),Potency,[1],inactive
COc1cccc(CN2C(=O)CCC2(C)C(=O)NC2CCCCCC2)c1 (centres undefined),"activity change, negative = inhibition",[1],inconclusive: 17.7%
CCOC(=O)c1ccc(Oc2cc(C)nc(SC)n2)cc1,Potency,[1],"inconclusive: 5.01 µM [rising, single point]"
Cc1c(Cl)cccc1NC(=O)c1cc(-c2ccc(O)cc2)on1,"activity change, negative = inhibition",[1],inconclusive: -25.3%
CCn1cc(C(=O)Nc2cccc(NC(C)=O)c2)c2cc(OC)c(OC)cc2c1=O,Potency,[1],"inconclusive: 10 µM [rising, partial curve]"
CC(=O)c1ccc(N2C(=O)C3C(C2=O)C(C(=O)c2ccc(Cl)cc2)N2CCCC32)cc1 (centres undefined),"activity change, negative = inhibition",[1],inconclusive: -17.3%
CCOC(=O)c1cnc(-n2nc(C)cc2C)nc1NC1CCCCC1,Potency,[1],inactive
Cc1cc(C)nc(N2CCC(C(=O)Nc3cccc(C(F)(F)F)c3)CC2)n1,Potency,[1],inactive
O=c1c(O)c(-c2cc(O)c(O)c(O)c2)oc2cc(O)cc(O)c12,"activity change, negative = inhibition",[1],inconclusive: 0.775%
same,"activity change, negative = inhibition",at 17.1 µM (top of the series),inactive: -6.24%
same,"activity change, negative = inhibition",at 38.2 µM (top of the series),inactive: -9.76%
CCc1ccccc1Nc1nc(N)nc(COC(=O)c2cccn2C)n1,Potency,[1],"inconclusive: 10 µM [rising, single point]"
CCN1CCN(C(=O)N[C@H](C(=O)N[C@@H]2C(=O)N3C(C(=O)O)=C(CSc4nnnn4C)CS[C@@H]23)c2ccc(O)cc2)C(=O)C1=O,Potency,[1],inactive
CC(C)(C)NC[C@H](O)c1cc(O)cc(O)c1,Potency,[1],inactive
COC(=O)[C@@]1(Cc2ccccc2)[C@H]2c3cc(C(=O)N(C)C)n(Cc4nc5ccccc5[nH]4)c3C[C@H]2CN1C(=O)c1ccccc1,Potency,[1],inactive
Cc1ccc(C(=O)N2c3ccc(F)cc3CCC2C)o1 (centres undefined),Potency,[1],"inconclusive: 10 µM [rising, partial curve]"
Cc1ccc(S(=O)(=O)c2c(N)n(NC(=O)c3ccco3)c3nc4ccccc4nc23)cc1,Potency,[1],"inconclusive: 5.01 µM [rising, single point]"
COc1ccc(-n2nnnc2SCC(=O)Nc2cccc(NC(C)=O)c2)cc1OC,Potency,[1],"inconclusive: 10 µM [rising, partial curve]"
CCN(CC)CCCNC(=O)CC1Sc2ccccc2NC1=O (centres undefined),"activity change, negative = inhibition",[1],inconclusive: 13.9%
CS(=O)(=O)N1CCC2(CCCN(Cc3cc(C(F)(F)F)cc(C(F)(F)F)c3)C2)CC1,Potency,[1],inactive
CCCN(Cc1cc2cc(C)ccc2[nH]c1=O)C(=O)c1cccc(OC)c1,Potency,[1],"inconclusive: 12.6 µM [rising, partial curve]"
CN(Cc1ccco1)c1cc(-c2cccc(C#N)c2)ncn1,Potency,[1],"inconclusive: 25.1 µM [rising, single point]"
O=c1c(-c2ccccc2)nc2cnc(N3CCOCC3)nc2n1C1CC1,Potency,[1],"inconclusive: 5.01 µM [rising, partial curve]"
CCOC(=O)N1CCN(c2nc(SC)nc3sc4c(c23)CC(C)(C)OC4)CC1,Potency,[1],"inconclusive: 10 µM [rising, single point]"
CCOc1ccc2nc(N3CCOCC3)nc(C)c2c1,Potency,[1],"inconclusive: 10 µM [rising, partial curve]"
C/C(=N\O)C1/C(=N/O)CC2C1C2(C)C (centres undefined),"activity change, negative = inhibition",[1],inconclusive: -12.3%
CCc1nnc(NC(=O)CSc2nc3c(cc2C#N)CCC3)s1,Potency,[1],active: 1.58 µM
